Results on 167 variants are retold here after the RNAGym collection of RNA variant scans (doi:10.7554/elife.90254).

The labels stand for the following.
B1: LINE1-full (parent)
chain: UACGUAGGUGGUUUUCCCCUGAUAGUGCUAAGGGGGCCUGGAAGUUUGGACUGGGCAGAGCUCAACACAGCGUGGCAAAGUGGCUGUGGCUAGACUGCCUCUCUGGAUUCCUCGUCACUCAGCAGGGCAUCUCUGAGAGAAAUGCC

Read counts are not given, so values of variants with three or more changes are uncertain.

The variants in this data set derive from B1. Nature of the data set: self-cleavage, relative activity (ratio to wild type); higher = more cleavage; in vitro, sequencing; the parent is a self-cleaving ribozyme.
U46C U52C U143C: the self-cleavage is 2.89.

Take U46C U91C A136G A141G: the self-cleavage is 0.92.

For U47C C66U U87A A107U, the self-cleavage came to 0.02.

As for G48U G60U A65G U100C C110U, the self-cleavage was 0.01.

U47A U87C A129U: the self-cleavage amounted to 0.21.

On to U46C U73A G135A, for which the self-cleavage worked out at 1.39.

Take G49A U91C A140U: the self-cleavage amounted to 0.44.

On to A50G A65U U81C, for which the self-cleavage came out at 0.

For U46C U52A A69G A124C, the self-cleavage came out at 0.61.

Turning to U47G G75A C118A, the self-cleavage worked out at 0.96.

With A50G U115C U130C, the self-cleavage is 1.67.

Consider A50U A67C U91C, for which the self-cleavage came to 0.08.

Consider A50G U52A U115C, for which the self-cleavage is 1.1.

Regarding U47C C66U A94G U134C, the self-cleavage was 0.12.

As for U47A U62C A64U U115G, the self-cleavage amounted to 0.25.

On to U47A A92G A107G, for which the self-cleavage amounted to 0.07.

Consider U47C A77G U96C G144A, for which the self-cleavage came out at 0.

Take G49A G82A U96C A141G: the self-cleavage stood at 0.07.

With U47C A57G U81A A140G, the self-cleavage was found to be 2.55.

For the variant U47A U87C C98U, the self-cleavage amounted to 0.03.

On to A50G U62C A78G U143C, for which the self-cleavage was 0.

As to A50G U91C C111U U115A, the self-cleavage was found to be 0.25.

Regarding A50G A140G A142G, the self-cleavage amounted to 0.41.

Take A50G U73C G105A: the self-cleavage turned out to be 1.41.

Turning to U46C G114U A138G, the self-cleavage stood at 0.76.

For the variant A50G U87A U130G, the self-cleavage is 0.15.

On to A50G U109A A140G, for which the self-cleavage is 0.51.

Regarding U47G A57G A69U A107G, the self-cleavage came to 0.

For the variant A50G U52A G80U A92G U119C U132C, the self-cleavage was determined as 0.

As for G48A A77U U108C, the self-cleavage amounted to 1.05.

Turning to U46C U52C U132C U143A, the self-cleavage came out at 0.

Consider U47G U85C U143C, for which the self-cleavage worked out at 0.29.

As for U47C C61U U96C, the self-cleavage came out at 0.03.

As to U46C U119G A136G, the self-cleavage amounted to 0.68.

As for U52A A69G A78G A94G, the self-cleavage was determined as 0.

Regarding A50C U73C C113A, the self-cleavage was found to be 1.84.

As to U47A A50U U87A C123U, the self-cleavage turned out to be 0.05.

Take U47C A69G G106U: the self-cleavage was 0.6.

U47C A57U U100A: the self-cleavage was found to be 0.

Take G49C U119C U143C: the self-cleavage stood at 0.8.

Turning to A50G C90A U96A, the self-cleavage came to 0.02.

As for U46C U91G G114A A138G, the self-cleavage stood at 0.

In the case of A50U A57G U143C, the self-cleavage turned out to be 0.46.

For the variant U47A U112C U130C A138G, the self-cleavage is 1.86.

Take U46C U73C C113A U115A: the self-cleavage came to 1.76.

U46C C99U A136G: the self-cleavage came to 1.05.

With A50G A59U C98U A136U A138G, the self-cleavage was found to be 0.56.

In the case of G49A U96C U104C A136U, the self-cleavage is 0.17.

G49A A57G A69G U115C: the self-cleavage amounted to 0.18.

Consider U46C U62C U115C, for which the self-cleavage is 0.

On to U46C U62C U109C, for which the self-cleavage amounted to 0.

On to U46C U81C A136U, for which the self-cleavage was found to be 2.14.

As for U47A A50U A67U A94U U143C, the self-cleavage was determined as 0.06.

With C51A A64G U119A U134C A140G, the self-cleavage stood at 0.14.

For U47A U52G A77U A92G, the self-cleavage amounted to 0.08.

On to U47C U96A A142G, for which the self-cleavage stood at 0.15.

For the variant G48A C51A A79G U85C, the self-cleavage amounted to 0.03.

G48C A57G A65G U143C: the self-cleavage was 0.

On to U47C U108C U134C, for which the self-cleavage was found to be 2.55.

U47C U112C A141G: the self-cleavage was 1.19.

For A50U U87C C123U, the self-cleavage is 0.12.

Consider U47C U62A A94U A107G A136G, for which the self-cleavage stood at 0.

Take U47A A92U A129U A142G: the self-cleavage was found to be 0.66.

As for G49C A78G U91C, the self-cleavage came to 0.38.

As for U47C C51G U112A, the self-cleavage turned out to be 1.88.

As to U46G A64U A92G U100C U112C, the self-cleavage is 0.

Consider U47A A57U A65G, for which the self-cleavage is 0.

U47C U96A A136G: the self-cleavage was found to be 0.09.

As for A50G U91C A94U, the self-cleavage turned out to be 0.67.

In the case of A50U A69G C111U, the self-cleavage stood at 0.4.

For U47A U134G A138G, the self-cleavage is 1.54.

As to U47A A77G U87A U115A, the self-cleavage stood at 0.09.

In the case of U46C G54A A77G A79G U91C, the self-cleavage was 0.

Turning to A50G A65G U130C A141G, the self-cleavage is 0.

For the variant U47G U85A G137A, the self-cleavage was 0.09.

In the case of U47C A65G C103U U115C A117U, the self-cleavage worked out at 0.11.

As for U47A A65U U115C, the self-cleavage is 0.1.

On to U47A A78G U130C, for which the self-cleavage is 1.3.

As for U47C U62C G127U A141G, the self-cleavage is 0.04.

Regarding U47C U100C U134A, the self-cleavage turned out to be 1.84.

For the variant A50G U73A U119C, the self-cleavage came out at 0.

For U52A A65G U104A G125U, the self-cleavage worked out at 0.05.

For G48U A57U U109C, the self-cleavage was 0.11.

In the case of U46C U85C U100C A142G, the self-cleavage is 0.

As to A50U A59G U102C G137A, the self-cleavage was found to be 0.23.

Consider U47C A117C U143C, for which the self-cleavage came out at 1.44.

As for A50U U108C U112C U130C, the self-cleavage stood at 1.37.

Take U46C U115A A140G: the self-cleavage stood at 1.9.

Take U52A A65U G114A: the self-cleavage was 0.05.

For C51U G60A U102A U119C, the self-cleavage stood at 0.03.

Turning to U47A G75A U108C, the self-cleavage is 1.46.

Consider U47A A77U U87G, for which the self-cleavage turned out to be 0.14.

Regarding U46G U52C C128U A138G, the self-cleavage amounted to 1.81.

For the variant G49A U104G U119C U130C, the self-cleavage amounted to 1.38.

In the case of G48A A59G U112C U115C, the self-cleavage was determined as 0.08.

U47A A57G U73A U115A: the self-cleavage came out at 0.33.

On to U47A U87C A136G A140U, for which the self-cleavage was 0.07.

Turning to A50G A94U U102A A124G C131U, the self-cleavage stood at 0.56.

For the variant U47A C128U A136G, the self-cleavage turned out to be 1.74.

Take U46C U85C U130C: the self-cleavage amounted to 0.

Consider A50G A77G U85C A138G, for which the self-cleavage came to 0.48.

In the case of C51A U73C U91C U130C A140G, the self-cleavage is 1.02.

Consider U47C A94U U132A A136G, for which the self-cleavage was determined as 0.5.

Consider U47A A57G U134C, for which the self-cleavage came to 0.78.

For U46C G53A C84A, the self-cleavage came out at 0.11.

A50U U73C A136G: the self-cleavage was determined as 1.73.

U46C U112C U132C: the self-cleavage is 2.51.

In the case of U46C C71A U109C, the self-cleavage was 0.22.

On to U47A A50G G53A U87C U96C U115A U132C, for which the self-cleavage turned out to be 0.21.

In the case of U47C U52C A141U, the self-cleavage amounted to 2.13.

For the variant A50G A65G U87A, the self-cleavage was 0.07.

Turning to U46C C113G A141G, the self-cleavage came out at 1.27.

Regarding G48U C51A U81C A129G, the self-cleavage amounted to 0.94.

As for A50G G72U U81A G89A C101U G114A, the self-cleavage was 0.1.

Take U46C U62C U143G: the self-cleavage came out at 0.

For the variant A50G U109G U132C, the self-cleavage is 0.

As to U47A A57U G97A A117C A124G, the self-cleavage was determined as 0.03.

On to U47A A77G U130A A138G, for which the self-cleavage was determined as 1.41.

For C51U U52C U62A U81C C99G A129G A136U, the self-cleavage was 0.

As to G48A A59U U91A A129G, the self-cleavage worked out at 0.28.

Turning to U47A A117U U134A, the self-cleavage came to 1.16.

Turning to U46C C66U G72C, the self-cleavage came to 0.04.

Regarding U46C U73A U119A A124G U143A, the self-cleavage came to 2.02.

As to A50C U52A U62A C76U A94G, the self-cleavage is 0.

For the variant U47C U81C A124G C133U A136G, the self-cleavage stood at 1.31.

U47C C63A A124G A142G: the self-cleavage is 0.04.

With C51A A77G A92G, the self-cleavage was 0.23.

Turning to U47G A77U U100C C131A, the self-cleavage turned out to be 1.58.

With U47C U62A C90U G105A, the self-cleavage was 0.01.

For the variant A50G G54U U85A A124G, the self-cleavage is 0.

On to A50U A69U U73A G114A, for which the self-cleavage is 0.04.

Consider U52A A57U G125A A142G, for which the self-cleavage was determined as 0.01.

Regarding A50U A69G U134C, the self-cleavage is 0.22.

Turning to U47A C51U A57G U96A G122U A124G A138G, the self-cleavage worked out at 0.03.

Consider A50C A64G U85A A107G, for which the self-cleavage was 0.

With G49A A50G A64G A79G, the self-cleavage was 0.26.

Turning to G49U A79U G93U, the self-cleavage amounted to 0.04.

Turning to U47A U87A A142G, the self-cleavage amounted to 0.05.

As for G48A A129U C145U, the self-cleavage was 1.

As for A50G G75A C76U A79U, the self-cleavage was 1.14.

As for U46C G114A A136G, the self-cleavage is 1.25.

Consider A50G A59G U73C, for which the self-cleavage was 0.

With U47C U102C A107G, the self-cleavage was 1.31.

With U46C U108C U115C, the self-cleavage was found to be 1.84.

With U47A U85C G93A, the self-cleavage came to 0.11.

A50G U104C U109C C123U: the self-cleavage is 0.88.

For U47A U132C A138U, the self-cleavage came out at 1.05.

In the case of A50G U81A U85A A117U, the self-cleavage amounted to 0.04.

Regarding U46C U102C A129G U134C, the self-cleavage was determined as 0.57.

On to C51U A57G A129G, for which the self-cleavage came out at 0.8.

Turning to U47G A69U U104G, the self-cleavage was 0.37.

As for U47C U52C U132C, the self-cleavage is 2.67.

U47A U109C A124G U130A: the self-cleavage is 1.53.

Consider U47C C76A A121G, for which the self-cleavage was 1.54.

Take U47C A50U G80C U112A: the self-cleavage worked out at 0.23.

As for A50U U81C A136G, the self-cleavage worked out at 2.37.

For the variant U46C U104A U130C, the self-cleavage was 0.74.

U47A A79G U81A U119C: the self-cleavage stood at 2.07.

Regarding C51U A65G U100C, the self-cleavage worked out at 0.05.

For the variant A50G A57G C63U, the self-cleavage came to 0.28.

Take U47C C90U A107G: the self-cleavage worked out at 0.08.

Regarding U47C U52C U73A A78G U100A, the self-cleavage was 0.59.

In the case of G49A U81C U87C, the self-cleavage turned out to be 0.07.

For U47C A92C U134C, the self-cleavage amounted to 0.

Take A50C U62C U115A: the self-cleavage was found to be 0.07.

In the case of G49C A67G A77G C111A A141G, the self-cleavage was found to be 0.78.

Turning to U47A A59G C71U A129G, the self-cleavage stood at 0.
